# “And” between values parts separate entries of the source, which are not always exact repeats. Equal entries are not always repeated. Structures can show the parent of a compound that is named as a salt. ± gives the standard deviation of the averaged measurements. Over roughly 2,000 compounds, “relative cell viability vs DMSO, compound alone” has its median near 1.1; the lowest 2% begin near 0.29. This is one part of the list.
# Tested on: TE10
# Experiment: relative cell viability vs DMSO, compound alone (fraction); TE10 is an esophageal squamous carcinoma line; higher = less cytotoxic
# Conditions: 2 µM; 48 h
# Protocol: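 TE10 ESCC cells (1,000/well, 384-well plates) were treated with Selleck bioactive library compounds at 2 uM alone for 48 h. Viability was read by CellTiter-Glo and expressed relative to DMSO wells. Two technical replicates (A, B).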
row,SMILES,relative cell viability
1,Nc1ccc(/N=N/c2ccccc2)c(N)n1 [Phenazopyridine HCl],1.03 ± 0.019
2,CCC(=O)O[C@]1(C(=O)SCF)[C@H](C)C[C@H]2[C@@H]3C[C@H](F)C4=CC(=O)C=C[C@]4(C)[C@@]3(F)[C@@H](O)C[C@@]21C [Fluticasone propionate],0.9349 ± 0.003
3,O=C(O)c1ccccc1Nc1cccc(C(F)(F)F)c1 [Flufenamic acid],1.21 ± 0.017
4,O=C(O)Cn1nnc(-c2cc(N3CCC(Oc4cc(F)ccc4Br)CC3)no2)n1,1.076 ± 0.005
5,Cc1cccc(C)c1OCC(=O)N[C@@H](Cc1ccccc1)[C@@H](O)C[C@H](Cc1ccccc1)NC(=O)[C@H](C(C)C)N1CCCNC1=O [Lopinavir],1.05 ± 0.048
6,Clc1ccc(C(c2ccccc2Cl)C(Cl)Cl)cc1 (configuration not stated) [Mitotane],0.94 ± 0.059
7,O=C1O[C@H]([C@@H](O)CO)C(O)=C1O [Vitamin C],1.079 ± 0.0096
8,CCCCN1CCCC[C@H]1C(=O)Nc1c(C)cccc1C [Levobupivacaine HCl],0.953 ± 0.13
9,CCCc1cc2c(N3CCN(C4=NCC(C)(C)S4)CC3)ncnc2s1 [MI-2 (Menin-MLL Inhibitor)],1.019 ± 0.0019
10,CNCc1ccc(C)c(NC(=O)c2ccc(Nc3nc(-c4ccccc4)c4ccccc4n3)cc2)c1,0.817 ± 0.06
11,COc1cc(CCc2cc(NC(=O)c3ccc(N4CC(C)NC(C)C4)cc3)n[nH]2)cc(OC)c1 (configuration not stated),1.081 ± 0.01
12,Nc1ccc(C(=O)O)c(O)c1 [Sodium 4-Aminosalicylate],0.9162 ± 0.0012
13,O=C(CSc1nc2c(c(=O)n1-c1ccccc1)SCC2)Nc1ccc(-c2ccccc2)cn1,1.09 ± 0.086
14,CCOC(=O)CC(=O)N1CCSC1COc1ccccc1OC (configuration not stated) [Moguisteine],0.825 ± 0.061
15,N#CC[C@H](C1CCCC1)n1cc(-c2ncnc3[nH]ccc23)cn1,1.14 and 0.808
16,CN(C[C@@H]1COCCO1)S(=O)(=O)Nc1ccc2ccc3ncc(-c4cnn(C)c4)cc3c(=O)c2c1,1.04 ± 0.067
17,CCCc1nn(C)c2c(=O)[nH]c(-c3cc(S(=O)(=O)N4CCN(C)CC4)ccc3OCC)nc12 [Sildenafil Citrate],1.2 ± 0.029
18,Cc1c(C(=O)N2CCOc3ccc(-c4ccc(N)nc4)cc3C2)ccc(S(C)(=O)=O)c1F,0.9185 ± 0.0061
19,C[C@H](Nc1ncnc2nc[nH]c12)c1cc2cccc(Cl)c2c(=O)n1-c1ccccc1,0.906 ± 0.051
20,CC(C)(O)CC(=O)NCCn1ccc2ncnc(Nc3ccc(Oc4cccc(C(F)(F)F)c4)c(Cl)c3)c21,1.17 ± 0.07
21,CC(NCCc1ccc(O)cc1)C(O)c1ccc(O)cc1 (configuration not stated) [Ritodrine HCl],1.1 ± 0.03

row,SMILES,relative cell viability
1,CCC(C)C1OC2(CCC1C)CC1CC(CC=C(C)C(OC3CC(OC)C(OC4CC(OC)C(O)C(C)O4)C(C)O3)C(C)C=CC=C3COC4C(O)C(C)=CC(C(=O)O1)C34O)O2 (configuration not stated) [Ivermectin],1.17 ± 0.087
2,CC(C)c1cnn2c(NCc3ccccc3)cc(NCCCCCCN)nc12,1.08 ± 0.063
3,"O=C(c1ccc(F)c(F)c1Nc1ccc(I)cc1F)N1CC(O)([C@@H]2CCCCN2)C1 [Cobimetinib (GDC-0973, RG7420)]",0.8481 ± 0.0073
4,O=S(=O)(c1cccc2cnccc12)N1CCCNCC1 [Fasudil (HA-1077) HCl],1.09 ± 0.029
5,COc1cc2nc(N3CCCN(C)CC3)nc(NC3CCN(Cc4ccccc4)CC3)c2cc1OC,1.12 ± 0.022
6,CCS(=O)(=O)N1CC(CC#N)(n2cc(-c3ncnc4[nH]ccc34)cn2)C1,1.15 ± 0.046
7,O=C1NCC2(CCN(CCc3ccccc3)CC2)O1 [Fenspiride HCl],1.05 ± 0.041
8,Clc1ccc2c(c1)CCc1cccnc1C2=C1CCNCC1 [Desloratadine],1.1 ± 0.041
9,CC(C)c1ccccc1Cc1cc(C(=O)Nc2ccc(S(=O)(=O)c3ccccc3C(C)(C)C)cc2)c(O)c(O)c1O,0.707 ± 0.087
10,O=C(O)CCc1ccc(NCc2cccc(Oc3ccccc3)c2)cc1,0.997 ± 0.012
11,NC(=O)Nc1cc(-c2cccc(F)c2)sc1C(=O)N[C@H]1CCCNC1,0.259 ± 0.021
12,C[C@H]1[C@H](C)CC[C@]2(C(=O)O)CC[C@]3(C)C(=CC[C@@H]4[C@@]5(C)CC[C@H](O)C(C)(C)[C@@H]5CC[C@]43C)[C@H]12 [Ursolic Acid],0.991 ± 0.047
13,C[C@H]1CO[C@@H]2Cn3cc(C(=O)NCc4ccc(F)cc4F)c(=O)c(O)c3C(=O)N12,1.109 ± 0.0039
14,Nc1nccc(Oc2ccc(NC(=O)c3c[nH]cc(-c4ccc(F)cc4)c3=O)cc2F)c1Cl,1.121 ± 0.0081
15,COc1c(C)cnc(Cn2cnc3c(Cl)nc(N)nc32)c1C,0.61 ± 0.039
16,COc1ccc2c(Oc3ccc(NC(=O)c4c(C)n(CC(C)(C)O)n(-c5ccccc5)c4=O)nc3)ccnc2c1,1.02 ± 0.013
17,c1ccc2c(CCNc3ccc(Nc4ccncc4)cc3)c[nH]c2c1,1.05 ± 0.091
18,NCCCCCC(=O)O [(6-)ε-Aminocaproic acid],1.01 ± 0.02
19,CC(C)CCNC(=O)[C@H](CC(C)C)NC(=O)[C@H]1O[C@@H]1C(=O)O [Loxistatin Acid (E-64C)],1.1 ± 0.019
20,CNCCc1ccccn1 [Betahistine 2HCl],0.903 ± 0.18
21,CC(C)Oc1ccc(-c2cnc3c(-c4ccnc5ccccc45)cnn3c2)cc1,1.19 ± 0.027

row,SMILES,relative cell viability
1,Cc1csc(-c2nnc(Nc3ccc(Oc4ncccc4-c4ccnc(N)n4)cc3)c3ccccc23)c1,0.926 ± 0.039
2,Nc1nc2c(ncn2COC(CO)CO)c(=O)[nH]1 [Ganciclovir],1.069 ± 0.0057
3,Nc1ccccc1NC(=O)c1cnccn1,1.11 ± 0.037
4,C[C@]12C=CC(=O)N[C@@H]1CC[C@@H]1[C@@H]2CC[C@]2(C)[C@@H](C(=O)Nc3cc(C(F)(F)F)ccc3C(F)(F)F)CC[C@@H]12 [Dutasteride],1.22 ± 0.042
5,Clc1cccc(Cl)c1NC1=NCCN1 [Clonidine HCl],1.13 ± 0.095
6,CN(C)S(=O)(=O)c1ccc2c(c1)/C(=C/c1cc3c([nH]1)CCCC3)C(=O)N2,0.915 ± 0.024
7,CO[C@H]1/C=C/O[C@@]2(C)Oc3c(C)c(O)c4c(O)c(c5c(nc6cc(C)ccn65)c4c3C2=O)NC(=O)/C(C)=C\C=C\[C@H](C)[C@H](O)[C@@H](C)[C@@H](O)[C@@H](C)[C@H](OC(C)=O)[C@@H]1C [Rifaximin],1.05 ± 0.018
8,Cc1cnc(Nc2ccc(OCCN3CCCC3)cc2)nc1Nc1cccc(S(=O)(=O)NC(C)(C)C)c1,0.906 ± 0.034
9,O=C(Cc1ccccc1)Nc1nnc(CCSCCc2nnc(NC(=O)Cc3ccccc3)s2)s1,0.866 ± 0.049
10,COc1ccc(-c2nc(N3CCOCC3)c3sc(CN(C)c4ncc(C(=O)NO)cn4)cc3n2)cn1,0.0746 ± 0.0025
11,COc1cc(-c2ncn(/C=C\C(=O)OC(C)C)n2)cc(C(F)(F)F)c1,0.26 ± 0.011
12,COc1ccc(Cl)c(Nc2nc3ccccc3nc2NS(=O)(=O)c2cccc(NC(=O)C(C)(C)N)c2)c1 [Pilaralisib (XL147)],1.018 ± 0.0022
13,CCCNC(=O)NS(=O)(=O)c1ccc(Cl)cc1 [Chlorpropamide],1.12 ± 0.056
14,COc1ccc(Oc2cc(C)c(-c3csc(NC(=O)c4ccncc4)n3)c(C)c2)cc1,1.06 ± 0.018
15,Cn1c(=O)c2c(ncn2CC2OCCO2)n(C)c1=O [Doxofylline],1.089 ± 0.0094
16,Cc1ccc([C@@H]2O[C@H](CO)[C@@H](O)[C@H](O)[C@H]2O)cc1Cc1ccc(-c2ccc(F)cc2)s1 [Canagliflozin],1.01 ± 0.097
17,CC(C)(C)c1cc(C(C)(C)C)c(NC(=O)c2c[nH]c3ccccc3c2=O)cc1O [Ivacaftor (VX-770)],1.03 ± 0.022
18,CC(C)NC[C@@H](C(=O)N1CCN(c2ncnc3c2[C@H](C)C[C@H]3O)CC1)c1ccc(Cl)cc1,0.74636 ± 0.00027
19,COc1cccc(C=NCCN=Cc2cccc(OC)c2[O-])c1[O-].[Cl-].[Mn+3],1.1 ± 0.05
20,COC(=O)Nc1nc2cc(Sc3ccccc3)ccc2[nH]1 [Fenbendazole],0.672 ± 0.03
21,CCOC(=O)[C@H]1O[C@@H]1C(=O)N[C@@H](CC(C)C)C(=O)NCCC(C)C [Aloxistatin],1.09 ± 0.027

row,SMILES,relative cell viability
1,C=CC(=O)Nc1cccc(Sc2nc(Nc3ccc(N4CCN(C)CC4)cc3)ncc2Cl)c1,1.11 ± 0.022
2,CCCCNc1ncc(C(=O)NCc2ccc(-n3ccnc3)cc2)c(NC2CCC(O)CC2)n1 (configuration not stated),1.19 ± 0.041
3,O=C(Nc1cccnc1)c1cc(-c2ccnc(F)c2)ccc1OCc1ccccc1,1.1 ± 0.088
4,O=C1CC[C@@H](C(=O)N2CSC[C@H]2C(=O)O)N1 [Pidotimod],1.02 ± 0.025
5,Oc1c(Cl)cc(Cl)c2cccnc12 [Chloroxine],0.9654 ± 0.0059
6,c1ccc(-c2ccc(C(c3ccccc3)n3ccnc3)cc2)cc1 (configuration not stated) [Bifonazole],1.12 ± 0.038
7,CN(C)CCC(c1ccc(Br)cc1)c1ccccn1 (configuration not stated) [Brompheniramine hydrogen maleate],1.15 ± 0.016
8,COc1ccc(Cl)cc1NC(=O)Nc1cc(C)nc2ccccc12,1.1 ± 0.057
9,COc1cc(Nc2c(C#N)cnc3cc(OCCCN4CCN(C)CC4)c(OC)cc23)c(Cl)cc1Cl [Bosutinib (SKI-606)],0.862 ± 0.039
10,CCC1(c2ccccc2)C(=O)NCNC1=O [Primidone],0.901 ± 0.089
11,CCCCc1oc2ccc(NS(C)(=O)=O)cc2c1C(=O)c1ccc(OCCCN(CCCC)CCCC)cc1 [Dronedarone HCl],0.848 ± 0.04
12,Nc1ncnc2c1ncn2[C@@H]1O[C@H](CO)[C@@H](O)[C@@H]1O [Vidarabine],1.08 ± 0.033
13,CC1CCN(CC[C@H]2CCCN2S(=O)(=O)c2cccc(O)c2)CC1,1.06 ± 0.021
14,C=CC(=O)Nc1cccc(Oc2nc(Nc3ccc(N4CCN(C)CC4)cc3)ncc2Cl)c1,0.758 ± 0.011
15,C[C@@](Cc1ccc(O)c(O)c1)(NN)C(=O)O [Carbidopa],1.06 ± 0.081
16,CCOc1nc2cccc(C(=O)O)c2n1Cc1ccc(-c2ccccc2-c2nnn[nH]2)cc1 [Candesartan],1.11 ± 0.018
17,CC(C)Oc1ccc2c(=O)c(-c3ccccc3)coc2c1 [Ipriflavone (Osteofix)],0.823 ± 0.12
18,CCCCOc1ccc(C(=O)Nc2ccc(F)cc2F)cc1,1.08 ± 0.038
19,Nc1nc(OCc2cc(Br)cs2)c2[nH]cnc2n1 [Lomeguatrib],1.12 ± 0.035
